Assay results from PubChem BioAssay AID488969 (Vanderbilt High Throughput Screening Facility, 2010).
Over roughly 110,000 compounds, “z-score” has its median near -0.1; the highest 2% begin near 2. The list shows a part of the results. Active and inactive are the calls of the source.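 How the source made its calls: active means z-score in the third read window above 3 or below -3; inactive means the rest.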

These compounds were tested against Metabotropic glutamate receptor 8 (Rattus norvegicus) (UniProt P70579) (assay: mGluR8 Gi/Go-coupled signaling modulation – cell-based, rat, thallium flux, HTS, primary screen (AID 488969)). Conditions: HEK293 rat mGluR8, GIRK (G protein-gated inwardly rectifying potassium channel) thallium flux, FluoZin2; at 10 µM; stronger effect = higher value; submaximal glutamate (EC20) added with thallium.
Sequence of UniProt P70579 (P70579 whole entry, looked up): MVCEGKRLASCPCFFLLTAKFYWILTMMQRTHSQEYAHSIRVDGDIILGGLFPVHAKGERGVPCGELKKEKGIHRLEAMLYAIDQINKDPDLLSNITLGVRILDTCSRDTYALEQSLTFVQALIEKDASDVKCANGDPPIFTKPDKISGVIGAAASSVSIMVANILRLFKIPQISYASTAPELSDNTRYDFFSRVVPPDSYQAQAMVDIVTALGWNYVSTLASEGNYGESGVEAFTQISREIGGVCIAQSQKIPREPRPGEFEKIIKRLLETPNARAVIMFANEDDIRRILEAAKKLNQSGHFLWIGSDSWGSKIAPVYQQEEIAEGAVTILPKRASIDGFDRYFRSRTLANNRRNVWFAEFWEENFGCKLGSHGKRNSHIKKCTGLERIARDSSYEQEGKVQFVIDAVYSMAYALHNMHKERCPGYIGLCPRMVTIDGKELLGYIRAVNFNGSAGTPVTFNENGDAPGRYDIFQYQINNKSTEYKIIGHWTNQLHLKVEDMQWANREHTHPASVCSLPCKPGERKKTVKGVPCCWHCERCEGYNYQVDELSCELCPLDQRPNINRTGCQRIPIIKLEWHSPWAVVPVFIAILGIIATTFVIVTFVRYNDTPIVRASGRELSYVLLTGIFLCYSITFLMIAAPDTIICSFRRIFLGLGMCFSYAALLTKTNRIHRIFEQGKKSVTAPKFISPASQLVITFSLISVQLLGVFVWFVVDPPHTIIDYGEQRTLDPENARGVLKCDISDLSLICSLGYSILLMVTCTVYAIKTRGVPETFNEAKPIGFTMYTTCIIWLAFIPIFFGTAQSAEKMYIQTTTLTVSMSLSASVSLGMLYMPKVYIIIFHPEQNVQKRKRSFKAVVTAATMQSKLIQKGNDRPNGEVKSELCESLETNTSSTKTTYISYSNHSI

Compound	z-score
CCOC(=O)CSc1nnc(-c2ccc(Cl)cc2Cl)o1	-0.507
Clc1ccccc1-c1ccc(CN2CCN(c3ccccc3)CC2)o1	-0.108
O=C(CSc1ccc(Cl)cc1)N1CCN(c2ccc([N+](=O)[O-])cc2Cl)CC1	-0.105
CN(c1ccccc1)S(=O)(=O)c1ccc(C(=O)NCC2CCCO2)cc1 (stereo not given)	-0.23
Cc1ccc(OCC(O)CN2C(=O)NC(C)(C)C2=O)cc1C (stereo not given)	-0.0562
CN(Cc1nc2ccccc2c(=O)[nH]1)C(=O)c1ccc(S(=O)(=O)N(C)C)cc1	-0.0175
COc1ccc(CC(=O)O/N=C(\N)Cc2ccc(OC)c(OC)c2)cc1	0.175
CCc1ccc(CNC(=O)C2CC(=O)N(CCc3ccc(C)cc3)C2)cc1 (stereo not given)	-0.28
OCCNCc1cc(Br)ccc1OCc1ccccc1	1.14
CCOC(=O)CN(C(=O)CSc1nnc2c(n1)[nH]c1ccc(F)cc12)c1ccccc1	-0.812
COc1cc2c(C(=O)NC3CCCCCC3)cn(C)c(=O)c2cc1OC	-0.276
CCOC(=O)c1cc(-c2ccccc2)sc1NC(=O)CN1C(=O)NC(CC)(c2ccccc2)C1=O (stereo not given)	0.0631
O=C(CSc1nnc2ccccn12)Nc1ccccc1C(=O)NC1CC1	-0.0231
O=C(CSc1nnc2c(n1)[nH]c1ccccc12)OCc1ccccc1	-0.438
O=C(c1cccc(C(=O)N2CCN(c3ccccc3F)CC2)n1)N1CCN(c2ccccc2F)CC1	-0.333
O=C(Nc1nnc(CCc2ccccc2)s1)c1cccs1	-0.218
Cc1ccc(NCc2nnc(SC(C)C(=O)N/N=C/c3ccc(C)o3)n2-c2ccccc2)cc1 (stereo not given)	-0.315
COc1cc(S(=O)(=O)NCC2OCCc3ccccc32)ccc1-n1cnnn1 (stereo not given)	-0.22
O=C1CC(N2CCOCC2)C(=O)N1CCc1ccccc1 (stereo not given)	0.298
O=C(COC(=O)c1ccc2c(c1)OCCO2)NCc1ccccc1	0.291
CCOC(=O)C1CCCN(C(=O)c2cc3c(=O)n(C)c4ccccc4c3n2C)C1 (stereo not given)	-0.988
COc1cccc(-c2nnn(CC(C)=O)n2)c1	0.000718
Cc1ccsc1/C=N/NS(=O)(=O)c1ccc([N+](=O)[O-])cc1	0.929
Cc1nn(Cc2ccc(Cl)cc2)c(C)c1NC(=O)c1ccc([N+](=O)[O-])cc1	-0.108
Cn1c(C(=O)N2CCCCCC2)cc2c(=O)n(C)c3ccccc3c21	-0.505
CCn1c(C)c(C)c2cc(C(=O)Nc3cccc(Cl)c3)ccc21	-0.0312
CC(=O)Oc1ccc(-c2cccc(C(=O)Oc3ccccc3)c2)cc1	-0.288

Compound	z-score
CCOC(=O)Nc1nnc(-c2cccc(OC)c2)s1	0.775
O=C(O)COc1ccc(/C=N/NC(=O)C2CCCN2S(=O)(=O)c2ccc(Cl)cc2)cc1 (stereo not given)	-0.0737
CCOc1cc(/C=N/NC(=O)c2nn(C)cc2Br)ccc1OCc1ccccc1	-0.143
CCCCNC(=O)C1CCN(Cc2ccc(OCc3ccccc3)cc2)CC1	0.479
O=C1CN(S(=O)(=O)c2ccc(Cl)cc2)CC(=O)N1CCc1ccccc1	0.517
CCCCOC(=O)Nc1ccc(N2CCCCC2)cc1	-0.595
COc1ccc(C2(C(=O)N3CCOCC3)CCCC2)cc1	-0.0732
COC(=O)c1c(C)[nH]c(C(=O)OCC(=O)N2c3ccccc3NC(=O)C2(C)C)c1C	-0.238
O=C(c1ccco1)N1CCN(C(=O)c2cnn3c(C(F)(F)F)cc(-c4cccs4)nc23)CC1	-0.583
Cc1ccc(S(=O)(=O)c2c(N)n(CCCO)c3nc4ccccc4nc23)cc1	-0.819
CCn1cc(/C=C(/C#N)S(=O)(=O)c2ccccc2)cn1	0.178
COc1ccc(N/C(=N\c2nc(C)cc(C)n2)NC(=O)C(C)C)cc1OC	-1.06
CCN(CC)CC#CC(C)OCOCC#CCOC (stereo not given)	0.431
COCc1cc(=O)[nH]c2cc(NC(=O)C(C)(C)CCl)c(C)cc12	-0.185
COc1ccc(CCNc2cc(N3CCN(C(=O)c4ccccc4F)CC3)ccc2[N+](=O)[O-])cc1OC	-0.266
Cc1cccc(N(CC(=O)N=Nc2c(O)[nH]c3ccccc23)S(C)(=O)=O)c1C	-0.693
Cc1ccc(NC(=O)COc2ccc3oc4c(c3c2)CCCC4)nc1	-0.197
CC(NC(=O)COc1ccc(-c2nnco2)cc1)c1ccc(Cl)cc1Cl (stereo not given)	-0.498
Cc1ccc(-c2csc(=S)n2CC(=O)OCC(=O)NCc2ccco2)cc1	-0.577
O=C(CSCc1ccc(Cl)cc1)Nc1ccc(S(=O)(=O)N2CCCCCC2)cc1	0.232
CCOC(=O)CSC1=C(C#N)C(c2ccc(C)s2)CC(=O)N1 (stereo not given)	-0.49
CC(=O)c1cc(C#N)c(Oc2cc(C)cc(C)c2)nc1C	-0.104
CCc1c(C(=O)Nc2ncn(Cc3cccc(C)c3)n2)csc1C	-0.529
COC(=O)N1CN(C(=O)OC)CN(C(=O)OC)C1	-0.0254
O=C(NCCC(=O)N1CCN(c2ncccn2)CC1)c1ccccc1	-0.091
Cc1cc(NC(=O)CSc2nc(C(C)C)nc3sc4c(c23)CCC(C)C4)no1 (stereo not given)	0.131
C=CCOc1nc(N2CCCC2)nc(N2CCCC2)n1	-0.722

Compound	z-score
O=C(O)C1CCCCC1C(=O)Nc1nccs1 (stereo not given)	0.000428
C=CCNC(=S)Nc1cccc2ccccc12	0.00401
COC(=O)CSc1nc2c(c(C3CC=CCC3)c1C#N)CCC2 (stereo not given)	0.602
O=C(O)Cn1nc(-c2ccccc2)c2ccccc2c1=O	0.102
COc1ccc(/C=c2\sc3nc(-c4ccccc4)c(-c4ccccc4)n3c2=O)cc1OC	-0.322
Nc1nonc1C(=O)NCCNCc1ccccc1OCc1ccccc1F	1.61
COc1ccc(C2=NO[C@@H]3[C@@H]4C[C@@H]([C@H]5C(=O)N(c6ccc7c(c6)OCO7)C(=O)[C@@H]45)[C@H]23)cc1OC	-0.0611
CCn1c2c(c3cc(C(=O)O)ccc31)CCCC2=O	0.843
O=C(COC(=O)Cc1cn2ccsc2n1)NC12CC3CC(CC(C3)C1)C2	0.435
Cc1ccc(S(=O)(=O)N2CCN(c3nc4ccccc4nc3-n3nc(C)cc3C)CC2)cc1	-0.206
COc1ccc(C(=O)N/C(=C\c2ccc3c(c2)OCO3)C(=O)NCCc2nc3ccccc3[nH]2)cc1	-0.399
Cc1cc(Cl)ccc1OCCCC(=O)NCC1CCCO1 (stereo not given)	-0.79
Cc1cc[n+](-c2nc3ccccc3nc2[N-]S(=O)(=O)c2cccs2)cc1C	-0.0185
Cc1nc(-c2ccccn2)sc1C(=O)Nc1ccc(F)cc1	-0.239
O=C(CCCOc1ccccc1)NCC1CCCO1 (stereo not given)	0.226
CN(Cc1ccccc1)c1nc2c(c(=O)[nH]c(=O)n2C)n1CCSc1ncccn1	0.672
COC(=O)c1ccccc1NC(=S)NC(NC(=O)COc1ccccc1)C(Cl)(Cl)Cl (stereo not given)	-0.203
CCN(CC)S(=O)(=O)c1ccc(N2CCCCC2)c(NC(=O)/C=C/c2cc(OC)c(OC)c(OC)c2)c1	-0.288
COCCn1nnnc1C(c1cc2cccc(C)c2[nH]c1=O)N1CCN(c2ccccc2F)CC1 (stereo not given)	0.391
O=C(COc1ccc(Br)cc1)N1CCC(c2ccccc2)C1 (stereo not given)	-0.638
Cc1[nH]c2ccc(-c3nnc(SCC(=O)c4ccc(F)cc4)o3)cc2c1C	-0.794
COc1cccc(C(=O)Oc2ccccc2/C=C\C(=O)c2cc3ccccc3o2)c1	0.0598
COCCNC(=O)Cn1c(=O)n(C)c2ccccc21	-0.152
CCc1ccc(N2NC(=O)/C(=C/C=C/c3ccco3)C2=O)cc1	-0.31
C=CCn1c(CNC(=O)c2ccco2)nnc1SCC(=O)Nc1cccc(Br)c1	-0.0571
COC(=O)c1sc2nc(CN3CCN(c4ccc(OC)cc4)CC3)[nH]c(=O)c2c1C	-0.46
COc1ccc(N(CC(=O)NC2CCCCC2)S(=O)(=O)c2c(C)[nH]c(=O)[nH]c2=O)cc1	0.514

Compound	z-score
CCOC(=O)c1[nH]c(C)c(CN(CCc2ccc(OC)c(OC)c2)C(=O)CCCC(=O)O)c1C	-0.22
O=C(c1cc(C2CC2)nc2ccc(Br)cc12)N1N=C(C(F)F)CC1(O)C(F)F (stereo not given)	-0.824
O=C(NCCCN1CCOCC1)c1cn(-c2ccccc2)nc1-c1cccs1	-0.0644
CC(C)CC(=O)Nc1ccc(C(=O)COc2ccc(-c3nnco3)cc2)cc1	0.387
CC(C)Cn1c(N2CCN(C(=O)c3cccs3)CC2)nc2ccccc21	-0.366
CC1CCCN(c2ccc(C(=O)NCc3cccs3)cn2)C1 (stereo not given)	-0.135
CCOc1nc(C)nc(NC(=O)NS(=O)(=O)c2ccccc2Cl)n1	-0.786
CCOc1ccc(Cl)cc1/C=N/NC(=O)CNC(=O)c1ccccc1	-0.114
COc1ccc(C2NC(=O)N(C)C3=C2C(=O)CC(C)(C)C3)cc1OC (stereo not given)	0.0627
O=c1c2ccccc2nc2n1C(CSCc1ccc(Cl)cc1Cl)CS2 (stereo not given)	-0.188
CCOC(=O)c1cc(CC)sc1NC(=O)C(c1ccccc1)c1ccccc1	0.193
CC1CCCCC12NC(=O)N(CC(=O)NC1CCCc3ccccc31)C2=O (stereo not given)	-0.469
O=c1c2ccccc2[nH]c(=S)n1CCCN1CCN(C2CCCCC2)CC1	active: 10.2
Cc1ccc(-c2nnn(CC(=O)N(CC3CCCO3)C(C(=O)NCC3CCCO3)c3ccc(F)cc3)n2)o1 (stereo not given)	-0.0943
O=C(NC(=S)Nc1cc([N+](=O)[O-])ccc1Cl)c1ccccc1	active: 12.9
COc1cccc(-c2nc3cc(C)ccc3o2)c1	-0.333
Cc1ccc(C(=S)NCS(=O)(=O)c2ccc(C)cc2)cc1	-0.17
Cc1cc(C(F)F)n2nc(C(=O)Nc3ccc(S(=O)(=O)N4CCCCCC4)cc3)nc2n1	-0.0233
CCC(C)c1c(O)nc(SCC(=O)Nc2ccccc2)[nH]c1=O (stereo not given)	-0.257
Cc1cc(C)n(-c2nc(O)cc(=O)[nH]2)n1	-0.0986
Cc1ccc(S(=O)(=O)N2CCCC2C(=O)n2nc(C)cc2C)cc1 (stereo not given)	0.0898
Cc1c(NC(=O)CSC2=C(C#N)C(c3ccccc3F)CC(=O)N2)c(=O)n(-c2ccccc2)n1C (stereo not given)	0.0917
O=C(OCC(=O)N1CCCC1)c1ccco1	1.38
COc1cc2c(cc1NC(=S)NC(=O)c1c(OC)cccc1OC)oc1ccccc12	-0.162
